Measured values published in PubChem BioAssay AID1159614 (National Center for Advancing Translational Sciences (NCATS), 2016).
The campaign covered roughly 45,000 compounds. About 65 (0.1%) were called active. Calls follow the shape of the dose curve; as a rule, active = well fitted activation curve with a large enough effect; inconclusive = small, poorly fitted or top-dose-only effect; inactive = no such curve, though single readings can be large or run the other way. The list shows a part of the results.

biological target: Galactocerebrosidase (Homo sapiens) (UniProt P54803); assay: A Novel Cell-Based Assay to Identify Small Molecules for B -Galactocerebrosidase; conditions: 145M-Twi-hGALC-G270D cells (Twitcher mouse brain line with human GALC G270D), HMU-beta-Gal fluorescence, 48 h; series mostly up to 57.5 µM; activation: at the top concentration; also: 0% is about no effect; nearly all actives have a fitted effect of over 65% in size
How it was run: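 Brain-derived Twitcher mouse 145M-Twi cells stably expressing human GALC-G270D or wild-type GALC, treated live, then residual GALC activity read by fluorescence of HMU-b-Gal substrate (0.1 mM final) in citrate-phosphate buffer pH 5.2 with sodium taurocholate. Signal increase indicates enhancement.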

Chain of UniProt P54803 (P54803 whole entry, looked up): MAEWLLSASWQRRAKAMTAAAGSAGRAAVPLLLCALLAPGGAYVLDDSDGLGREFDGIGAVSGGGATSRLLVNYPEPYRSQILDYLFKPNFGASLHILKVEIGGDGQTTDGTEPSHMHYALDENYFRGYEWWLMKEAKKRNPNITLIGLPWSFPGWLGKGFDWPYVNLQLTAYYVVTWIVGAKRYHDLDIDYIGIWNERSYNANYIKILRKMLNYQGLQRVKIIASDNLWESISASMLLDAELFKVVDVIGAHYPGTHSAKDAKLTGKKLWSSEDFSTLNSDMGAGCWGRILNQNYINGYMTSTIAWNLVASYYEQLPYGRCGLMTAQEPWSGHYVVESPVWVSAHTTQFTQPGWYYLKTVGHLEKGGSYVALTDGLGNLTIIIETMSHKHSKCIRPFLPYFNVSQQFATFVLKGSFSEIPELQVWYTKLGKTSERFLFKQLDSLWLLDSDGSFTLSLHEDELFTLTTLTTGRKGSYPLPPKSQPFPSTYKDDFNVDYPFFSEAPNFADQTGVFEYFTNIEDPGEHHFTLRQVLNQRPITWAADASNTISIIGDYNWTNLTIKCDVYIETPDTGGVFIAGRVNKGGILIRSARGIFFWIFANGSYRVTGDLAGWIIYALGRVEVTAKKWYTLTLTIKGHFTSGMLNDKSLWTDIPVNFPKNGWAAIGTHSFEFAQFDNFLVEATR

activation, inactive:
Cc1cccc(C)c1OCc1cc(=O)n2c3c(sc2n1)CCCC3 -21.1%, COc1ccc(-n2cc(-c3ccccc3)c3c(NC4CCCC4)ncnc32)cc1 -8.65%, Cc1cccc(Oc2nc3c(c(=O)n(C)c(=O)n3C)n2Cc2ccccc2)c1C -11.6%, COc1ccc2sc(N(Cc3cccnc3)C(=O)COc3ccccc3)nc2c1 -9.62%, COc1ccc(C(=O)Nc2nnc(C(C)C)s2)cc1OC -26.5%, COc1cc(NC(=O)Cn2c(=O)n(CC3CCCO3)c(=O)c3ccccc32)cc(OC)c1 (configuration not stated) -16.9%, CCOc1ccc(CCNc2nc3ccccc3n3c(C)nnc23)cc1OCC -14.4%, Cc1cc(C)cc(NC(=O)Nc2nnc(N(C)C3CCCCC3)s2)c1 -9.38%, COc1ccccc1-c1noc(CCCC(=O)NCc2ccco2)n1 -22.4%, COc1ccccc1Cc1nc2ccccc2nc1SCC(=O)Nc1cc(Cl)ccc1OC -5.71%, Cc1ccc(NC(=O)c2cc3nc(-c4ccccc4)cc(-c4ccccc4)n3n2)cc1 -12.6%, CCCCc1nn2c(=O)cc(COC(=O)c3ccc(NC(=O)C(CC)CC)cc3)nc2s1 -16.7%, Cc1ccc(CNC(=O)c2cnn(-c3cccc(C)c3)c2C2CCN(C(=O)OC(C)(C)C)CC2)cc1 -0.906%, CC(=O)c1ccc(NS(=O)(=O)c2ccc(-c3cnc(C4CC4)o3)cc2)cc1 -3.74%, CCC1CCCCN1S(=O)(=O)c1cc(C(=O)Nc2ccc(C)c(F)c2)ccc1F (configuration not stated) -11.8%, CCOCCCn1c(=N)c(C(=O)NC2CCCC2)cc2c(=O)n3cc(C)ccc3nc21 -18.4%, COc1ccc(CCNC(=O)c2ccc(Cn3c(=O)c4ccccc4n(Cc4cccc(C)c4)c3=O)cc2)cc1OC -7.94%, CCn1cnc2c(=O)oc3ccc(S(=O)(=O)Nc4ccc(OC)cc4)cc3c21 -11.3%, CCOc1ccc(NC(=O)C2CCCN(S(=O)(=O)c3c(C)noc3/C=C/N(C)C)C2)cc1 (configuration not stated) -35.1%, CCOC(=O)C1=C(CN2CCN(c3ccc(OC)cc3)CC2)NC(=O)NC1c1ccc(Cl)cc1 (configuration not stated) -6.51%, Cc1cc(CN2CCN(c3cccc(C)c3C)CC2)cs1 -16.1%, Fc1ccc2[nH]c(-c3cccs3)cc2c1 -16.5%, CC(C)Cn1c(=O)c2sccc2n2c(CCCC(=O)N3CCN(c4ccc(F)cc4)CC3)nnc12 -13.8%, COc1cccc(-n2c(SCC(=O)Nc3nnc(C)s3)nc3c([nH]c4ccccc43)c2=O)c1 -6.15%, CCc1ccccc1NC(=O)c1nnn(Cc2ccc(Cl)cc2)c1N -24.2%, CCOC(=O)c1c(S(=O)(=O)N2CCC(C(=O)Nc3ccc(C)cc3C)CC2)c(C)n(C)c1C -13.4%, Cc1cc(C)cc(NC(=O)c2cnc3sc(N4CCCC4)nn3c2=O)c1 -12.8%, COCCNC(=O)CSc1nc(-c2ccccc2)[nH]c1-c1ccc(OC)cc1 -21.1%, Cc1ccc(Cn2cc(C(=O)c3ccc4c(c3)OCO4)c(=O)c3cc(C)ccc32)cc1 -20.6%, COc1ccc(C)cc1NC(=O)N1CC(C)Sc2ccccc21 (configuration not stated) -8.23%, Cc1ccc(-c2nc(CSc3nncn4c3cc3occc34)c(C)o2)cc1 -11.2%, NCCc1nc2cccnc2n1-c1ccccc1 -22.5%, CC(C)(C)C(O)/C=C/c1ccc2c(c1)OCO2 (configuration not stated) -13.7%, O=C(Nc1cccc(C(F)(F)F)c1)c1cc2nc(-c3ccc4c(c3)OCO4)cc(C(F)(F)F)n2n1 -7.53%, CCOC(=O)N1CCC(NC(=O)c2cnn(-c3cccc(F)c3)c2-n2cccc2)CC1 -2.2%, Cc1c(Cl)cccc1NC(=O)C1CCCN(c2ncnc3onc(C)c23)C1 (configuration not stated) -7.73%, CC1CCN(S(=O)(=O)c2ccc3c(c2)c(=O)c(C(=O)NC(C)c2ccccc2)cn3C)CC1 (configuration not stated) -19%, CN(CC(=O)Nc1ccccc1F)S(=O)(=O)c1ccc2c(c1)c(=O)n(C)c(=O)n2C -6.87%, COc1ccc(CCC(=O)NCc2nc3cccnc3n2Cc2ccc(F)cc2)cc1 -0.481%, Cc1ccc(Cl)cc1N1CCN(C(=O)c2ccc3c(c2)CCN3S(=O)(=O)c2ccccc2)CC1 -6.06%, Cc1ccc(-c2nnc(Nc3cccc(O)c3)c3ccccc23)cc1S(=O)(=O)NCC1CCCO1 (configuration not stated) -10.2%, NS(=O)(=O)c1ccc(CCNc2ncnc3c2cnn3-c2cccc(Cl)c2)cc1 -9.43%, O=C(NCc1ccccc1Cl)c1ccc2c(c1)N(Cc1ccccc1)C(=O)CS2 -11.9%, O=C(NCCc1ccccc1)C1CCN(Cc2cc3ccccc3n2Cc2cccc(Cl)c2)CC1 -5.55%, COc1ccc(CNC(=O)c2cc(=O)[nH]c3ccc(S(=O)(=O)N4CCCC4)cc23)c(OC)c1 -11.7%, O=C(NCCc1ccccc1)c1ccc2c(c1)N(Cc1ccccc1)C(=O)c1ccccc1S2(=O)=O -10.1%, CCOc1cc(C(=O)Nc2cccc3cccnc23)cc(OCC)c1OCC -10.3%, Cc1cc(NC(=O)CSc2nc(-c3ccccc3C)nc3c2c(=O)n(C)c(=O)n3C)no1 -8.33%, COc1ccc(Cl)cc1NC(=O)c1ccc2c(c1)CCN2S(C)(=O)=O 0.971%, COc1cccc(Nc2sc(C(=O)c3ccc(Cl)cc3)c(N)c2C(=O)NCc2ccc(C)cc2)c1 -24%, CCOC(=O)CN(Cc1ccccc1)C(C(=O)NC1CCCCC1)c1ccc(OC)cc1 (configuration not stated) -15.6%, CC(=O)c1cccc(NC(=O)C(CC(C)C)NS(=O)(=O)c2ccc3c(c2)CCN3C(C)=O)c1 (configuration not stated) -0.699%, Cc1ccc(Nc2nc3ccccc3c3nnc(C)n23)c(C)c1 -10.6%, COc1ccc(-c2cc3nc(C)c(CCC(=O)N4CCN(c5ccc(F)cc5)CC4)c(C)n3n2)c(OC)c1 -39.2%, COc1ccc(NC(=O)c2c(C)oc3ccc(O)c(CN4CCN(Cc5ccccc5)CC4)c23)cc1Cl 4.5%, COc1ccccc1OCC(=O)NC1CC(=O)N(c2ccc3c(c2)OCCO3)C1 (configuration not stated) -3%, CC(=O)c1cccc(Nc2cc(C)nc3nc(Cc4ccccc4)nn23)c1 -8.85%, CCCCN(CCCC)CCNC(=O)CN1C(=O)CSc2ccc(S(=O)(=O)N3CCOCC3)cc21 1.47%, Cc1cccc(NC(=O)Cn2nc3c4ccccc4n(Cc4ccccc4)cc-3c2=O)c1 -9.11%, COc1ccc(-n2nc(C(=O)Nc3ccc(Cl)cn3)c3c4ccccc4n(C)c3c2=O)cc1 -18.7%, O=C(Nc1cccc(C(F)(F)F)c1)N1CC2CCCN2c2ccccc21 (configuration not stated) -6.96%, COc1ccc2cc(-c3nnc(Nc4ccccc4)s3)c(=O)oc2c1 -2.49%, CCOC(=O)c1c(C)n(-c2ccccc2)c2ccc(OC(=O)c3cccc(C)c3)cc12 -1.29%, COc1cccc(CNC(=O)c2ccc3c(=O)n4nc(Nc5ccccc5)sc4nc3c2)c1 -14.4%, CC(=O)c1cccc(NC(=O)Nc2nnc(N3CCCC3)s2)c1 -8.69%, CC(=O)c1cc(-c2ccc(F)cc2)n(CC(=O)NC2CCC(C)CC2)c1C (configuration not stated) -5.09%, Cc1oc2ncn(C)c(=O)c2c1C(=O)NCCCN1CCCCC1C (configuration not stated) 0.551%, CCCOc1ccc(CNC(=O)c2ccc(C)c(-n3c(C)nc4cccnc43)c2)cc1 -12%, O=C(O)c1cc(O)c(O)c(O)c1 -12.8%, COc1ccc(-n2nc(C(=O)O)c(=O)n(C)c2=O)cc1 -5.23%, CCN1CCN(C(c2ccc(C)cc2)c2c(O)cc(C)n(Cc3ccco3)c2=O)CC1 (configuration not stated) -12.7%, CN(Cc1ccccc1)S(=O)(=O)c1ccc2[nH]c3c(c2c1)CCCCC3 -44.1%, Cc1ccc(N2CCN(C(=O)c3cnn(-c4ccc(F)cc4F)c3C3CCN(C(=O)OC(C)(C)C)CC3)CC2)c(C)c1 2.99%, Cc1ccccc1C(=O)OCc1cc(=O)n2nc(C(C)C)sc2n1 -23.7%, Nc1ccc(N=Nc2ccccc2)c(N)n1 -6.27%, COc1cc(OC)c(N(C)C(=O)c2cn(C3CCCC3)c(=O)c3c2c2ccccc2n3C)cc1Cl -18%, CC(C)C1C(=O)Nc2ccc(S(=O)(=O)NCCc3ccc(Cl)cc3)cc21 (configuration not stated) -19.5%, O=P(O)(O)C(O)(Cc1cccnc1)P(=O)(O)O -17.2%, COc1ccc(Cl)cc1NC(=O)CN1C(=O)C(C)(C)c2cc(S(=O)(=O)N3CCCCC3)ccc21 -8.66%, Cc1ccccc1CNC(=O)c1oc2c(c1C)-c1[nH]ncc1CC2 -8.92%, Cc1ccc2nc(Cl)c3cc(C(=O)N4CCCCC4C)sc3c2c1 (configuration not stated) -5.69%, Cc1ccccc1Nc1nn2c(=O)c3ccc(C(=O)NCCc4ccc(Cl)cc4)cc3nc2s1 -3.95%, Cc1ccsc1CN(C(=O)c1oc2ccc(Br)cc2c1C)C1CCS(=O)(=O)C1 (configuration not stated) -13.6%, Cc1cn(C)c(CC(=O)NCc2ccccc2)c1C(=O)O -9.28%, CCOc1ccc(Nc2c(S(=O)(=O)c3ccc(Cl)cc3)cnc3ccc(OCC)cc23)cc1 -10.3%, CCN1c2ccccc2-c2nc(SCC(=O)NCc3ccc(Cl)cc3)ncc2S1(=O)=O -15.2%, CCOc1ccc(C2c3c(oc4ccc(C)cc4c3=O)C(=O)N2CCCN2CCOCC2)cc1 (configuration not stated) 0.348%, Cc1cc(N2CCN(C)CC2)nc2ccc(NC(=O)Nc3cccc(Cl)c3)cc12 0.436%, Cc1cccc(-n2ncc(C(=O)N3CCN(c4ccc(C)cc4C)CC3)c2C2CCN(C(=O)OC(C)(C)C)CC2)c1 0.0204%, O=C(NCCN1CCN(c2cccc(Cl)c2)CC1)Nc1ccccc1C(F)(F)F -9.98%, Cc1ccc(CNc2nc(-c3ccco3)nn2S(=O)(=O)c2ccc3ccccc3c2)cc1 -2.31%, O=C(CSc1ncc(-c2ccccc2)[nH]1)Nc1ccc(Cl)cc1 -11.4%, O=C(CC1C(=O)N(c2ccccc2)C(=O)N1CCc1cccs1)Nc1ccc(F)cc1 (configuration not stated) -14.3%, O=C(CCCn1c(=O)c2cccn2c2cccnc21)NCc1ccccc1Br 9.49%, CSc1ncc(C(=O)N2CCN(c3cccc(Cl)c3)CC2)c(C)n1 -3.23%, CCOc1ccc(CCNC(=O)Cn2nnc(-c3ccccc3Cl)n2)cc1OCC -1.93%, Cc1c(C)n(Cc2ccc(F)cc2)c2ccc(C(=O)NCc3ccco3)cc12 -9.72%
